# Hit rate of the full screen: of about 310,000 compounds, about 2,200 (0.71%) showed an effect of 50% or more. Effects have a minus sign here. The list shows a part of the results.
# Biological target: human ether-à-go-go-related gene (hERG) potassium channel (human, UniProt Q12809)
# Test: primary screen, population patch clamp on CHO cells stably expressing hERG
# human ether-à-go-go-related gene (hERG) potassium channel, sequence (Q12809 whole entry, looked up): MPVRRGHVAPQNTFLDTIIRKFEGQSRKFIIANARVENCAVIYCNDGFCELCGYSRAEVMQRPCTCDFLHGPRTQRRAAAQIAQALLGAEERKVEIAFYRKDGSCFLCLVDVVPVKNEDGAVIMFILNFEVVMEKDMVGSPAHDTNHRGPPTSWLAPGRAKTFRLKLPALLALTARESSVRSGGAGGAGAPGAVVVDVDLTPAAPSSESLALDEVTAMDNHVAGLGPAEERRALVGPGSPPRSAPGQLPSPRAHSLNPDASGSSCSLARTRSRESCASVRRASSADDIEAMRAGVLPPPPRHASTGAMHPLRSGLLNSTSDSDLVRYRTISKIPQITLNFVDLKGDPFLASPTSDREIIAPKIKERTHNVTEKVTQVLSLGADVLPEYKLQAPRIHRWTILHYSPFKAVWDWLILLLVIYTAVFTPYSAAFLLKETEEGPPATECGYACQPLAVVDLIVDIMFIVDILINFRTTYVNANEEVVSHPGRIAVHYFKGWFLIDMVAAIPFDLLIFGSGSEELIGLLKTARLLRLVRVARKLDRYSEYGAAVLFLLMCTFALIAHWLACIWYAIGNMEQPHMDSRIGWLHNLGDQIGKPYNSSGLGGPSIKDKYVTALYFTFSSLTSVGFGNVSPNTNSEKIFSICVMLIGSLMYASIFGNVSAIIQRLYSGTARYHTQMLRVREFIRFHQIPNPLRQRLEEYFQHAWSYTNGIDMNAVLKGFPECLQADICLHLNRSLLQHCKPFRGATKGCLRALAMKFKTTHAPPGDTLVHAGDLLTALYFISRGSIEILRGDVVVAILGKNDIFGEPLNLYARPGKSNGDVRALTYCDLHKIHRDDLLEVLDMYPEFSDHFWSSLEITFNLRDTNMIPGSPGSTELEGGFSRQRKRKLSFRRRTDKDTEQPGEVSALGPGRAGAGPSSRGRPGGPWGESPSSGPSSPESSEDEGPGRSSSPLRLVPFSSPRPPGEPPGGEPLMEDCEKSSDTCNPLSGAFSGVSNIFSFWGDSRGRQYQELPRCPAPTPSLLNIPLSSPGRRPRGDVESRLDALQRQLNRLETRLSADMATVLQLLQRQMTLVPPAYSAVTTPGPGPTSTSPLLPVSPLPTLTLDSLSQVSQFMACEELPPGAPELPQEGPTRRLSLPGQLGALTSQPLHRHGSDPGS
row,SMILES,"hERG current change (%, negative = inhibition) at 1uM [%]"
1,CC(=O)N1CCCc2cc(S(=O)(=O)NC(C(=O)NC(C)c3ccccc3)C(C)C)ccc21 (centres unmarked),1.38
2,N#Cc1c(-c2ccc(Cl)cc2)ccn2nc(C3CCCCC3)nc12,14.9
3,CCCCCCCc1ccc(-c2ccc(O)cc2)nc1,9.71
4,N#C/C(=C/c1ccc(N2CCCCC2)o1)C(=O)Nc1ccc(Cl)cc1,12.8
5,Cc1ccc(S(=O)(=O)N2CCN(C(=O)CC(C)C)CC2)cc1,5.17
6,CCOC(=O)c1ccc(N=Cc2c(O)n(-c3ccccc3F)c(=S)[nH]c2=O)cc1,-0.101
7,CCN1CCN(c2ncnc3sc(C)c(-c4ccccc4)c23)CC1,-25.9
8,Cc1ccc(CCN2C(Nc3ccccc3)=NC[C@@H]2C)cc1,-16.8
9,CCC(=O)Nc1nnc(/C=C/c2ccccc2)s1,5.06
10,CSCCC(NC(=O)c1ccc([N+](=O)[O-])cc1Cl)C(=O)OCC(=O)N(C)C (centres unmarked),8.47
11,COc1ccc(C(=O)N2CCCC(CCC(=O)NCc3ccccc3F)C2)c(OC)n1 (centres unmarked),11.5
12,COc1cccc(NC(=O)Nc2ccccc2Br)c1,13.4
13,COc1ccccc1[C@@H]1C(c2ccc(F)cc2)=NN(c2ccccc2)[C@H]1C(=O)N1CCOC1=O,11.9
14,CCOC(=O)c1c(NS(=O)(=O)c2ccccc2)n(CCCOC)c2nc3ccccc3nc12,6.13
15,CC(C)CNC(=O)CSc1ccc(Cl)cc1,0.174
16,Cc1ccc(S(=O)(=O)N2CCN(c3cnn(C)c(=O)c3Cl)CC2)cc1,3.55
17,COc1cccc(/C=C2\SC(N3CCCC(C)C3)=NC2=O)c1OC (centres unmarked),9.17
18,CC(=O)Nc1cccc(OCC(O)Cn2cnc3ccccc32)c1 (centres unmarked),19.6
19,O=C(NCc1ccco1)c1cnc2ccccn2c1=O,5.25
20,Cc1cccc(OCC(=O)N2CCN(c3nnc(-c4ccccc4)c4ccccc34)CC2)c1,-3.75
21,COc1ccc(-n2c(=O)n(Cc3ccccc3)c(=O)c3[nH]cnc32)cc1,0.529
22,CCC(C(=O)NC1CCCC1)N(C(=O)Cn1nnc(-c2ccc(C)o2)n1)c1cnc2ccccc2c1 (centres unmarked),10.4

row,SMILES,"hERG current change (%, negative = inhibition) at 1uM [%]"
1,CC(C)Cc1oc(C(=O)O)cc1CN1CCOCC1.Cl,9.34
2,CCSc1cc(C2C(C#N)=C(N)OC(C)=C2C(=O)OC)c(C)o1 (centres unmarked),10.4
3,Cc1ccc(C(=O)OCC(=O)N2CCCC2)cc1,5.79
4,CCOc1ccc(C(F)(F)F)cc1NC(C)=O,10
5,CCOC(=O)N1CCN(C(=O)CCn2nc(-c3ccccc3)ccc2=O)CC1,-7.98
6,CCOC(=O)CN1C(=O)C(O)(c2c(C)[nH]c3ccccc23)c2ccccc21 (centres unmarked),9.3
7,NC(=O)c1nsc(C(=O)N(c2ccc3c(c2)OCO3)C(C(=O)NCC2CCCO2)c2ccc(F)cc2)c1N (centres unmarked),6.43
8,CN([C@@H](Cc1ccc(OS(=O)(=O)c2cccc3cnccc23)cc1)C(=O)N1CCN(c2ccccc2)CC1)S(=O)(=O)c1cccc2cnccc12,-0.0105
9,O=C(NC1CC1)c1ccc(CS(=O)c2ccccc2)o1 (centres unmarked),1.26
10,Cn1nnnc1SCC(=O)NCc1cc([N+](=O)[O-])ccc1O,15
11,CCOC(=O)C1(CC2CC2)CCN(Cc2ccc(C(=O)OC)cc2)CC1,-5.47
12,CCOc1ccc(S(=O)(=O)N2Cc3ccccc3CC2C(=O)NCCCn2ccnc2)cc1 (centres unmarked),-3.89
13,COc1cccc(CC(=O)N2CCC(n3nccc3NC(=O)C3CCOC3)CC2)c1 (centres unmarked),11.9
14,CN(CC(=O)Nc1ccccc1Cl)C(=O)COC(=O)CNC(=O)c1ccc(Br)o1,-14.9
15,CCOc1ccc(-c2nnc(NC(=O)Cc3ccc(OC)cc3)o2)cc1,13.7
16,Fc1cccc(Cl)c1/C=N/Nc1ccccn1,8.58
17,COc1ccc(/C=C2\CCCC3C2=NN(C(=O)c2scnc2C)C3c2ccc(OC)cc2)cc1 (centres unmarked),7
18,O=C(CNC(=O)c1ccccc1)Nc1ccsc1C(=O)O,9.94
19,CCOc1ccccc1NC(=O)Nc1cccc(C(C)=O)c1,-0.684
20,COc1cc(CNCc2ccccc2)ccc1OCC(O)c1ccccc1.O=C(O)C(=O)O (centres unmarked),-4.74
21,CCc1ccc(OCC(=O)NNC(=O)C2CCC2)cc1,-27.4
22,COCCN(C(=O)c1ccccc1F)c1c(N)n(Cc2ccccc2)c(=O)[nH]c1=O,9.89

row,SMILES,"hERG current change (%, negative = inhibition) at 1uM [%]"
1,COc1ccc(OCC(=O)Nc2ccc(N3CCN(C(=O)c4ccccc4)CC3)c(Cl)c2)cc1,9.86
2,COc1ccccc1Oc1ccc(Oc2ccccc2OC)cc1,16.4
3,CC(C)(C)c1ccc(S(=O)(=O)Nc2cccc(C3OCCCO3)c2)cc1,15.6
4,CC1(C)Cc2nc3[nH]c(=S)n(-c4ccccc4)c(=O)c3cc2CO1,12.4
5,CCOCCCN1C(=O)C(O)=C(C(C)=O)C1c1cccs1 (centres unmarked),14.6
6,C=C(C)Cn1c(CCNC(=O)C(C)(C)C)nc2ccccc21,13.6
7,O=C(Nc1ccc(S(=O)(=O)Nc2nccs2)cc1)c1cccc(N2C(=O)c3ccccc3C2=O)c1,6.07
8,COc1cc(C(=O)NCCOc2cc(C)cc(C)c2)cc(OC)c1OC,6.83
9,CC(C)n1c(=S)[nH]c2ccccc21,10.4
10,CCCCCCCNC(=O)C1(CC2CC(c3ccc(Cl)cc3)=NO2)CCN(C(=O)Cc2ccc(F)cc2)CC1 (centres unmarked),10.1
11,N#Cc1ccc(S(=O)(=O)N2CCN(CC(=O)Nc3ccccc3C(=O)NC3CC3)CC2)cc1,-67.3
12,Cn1nc([N+](=O)[O-])nc1Sc1ccc(Cl)cc1,2.69
13,CCOc1ccc(S(=O)(=O)NCC(c2ccc3c(c2)OCO3)N2CCN(C)CC2)cc1 (centres unmarked),-3.34
14,CCCN(CC(=O)Nc1ccccc1C)C(=O)CC(NC(=O)c1ccccc1)c1ccccc1 (centres unmarked),-6.92
15,CCC(=O)Nc1ccc(NC(=O)CSc2nnc(-c3ccco3)n2CC)cc1,6.83
16,CC#CCN(Cc1ccco1)C(=O)C1CCC(=O)N(Cc2ccccc2F)C1 (centres unmarked),4.49
17,O=C(Nc1ccccn1)C1CCN(S(=O)(=O)c2ccc3c(c2)OCCO3)CC1,5.99
18,COc1ccc(CNC(=O)Nc2cccc(C)c2)cc1,14.3
19,CCOc1cc(CNCc2ccccc2)ccc1OCc1ccc(Cl)cc1.Cl,6
20,O=C(NCC1CCCO1)c1cc([N+](=O)[O-])ccc1Cl (centres unmarked),8.6
21,NC(=O)C1CCN(C(=O)C(=O)c2cn(CC(=O)N3CCCC3)c3ccccc23)CC1,16.1
22,O=C(CSc1ccncc1)Nc1ccc2ccccc2c1,12.7

row,SMILES,"hERG current change (%, negative = inhibition) at 1uM [%]"
1,COc1ccc(Cl)cc1NC(=O)CN(C)C(=O)c1cn(-c2ccccc2)nc1-c1cccnc1,-19.4
2,COc1ccc(S(=O)(=O)Nc2ccccn2)cc1C,9.56
3,CCc1ccccc1NC(=O)NC(C)c1ccc2c(c1)OCO2 (centres unmarked),14.6
4,CC(C)(C)C(=O)Nc1nnc(SCC(=O)NCc2ccco2)s1,8.98
5,Cc1ccc(C(=O)Nc2ccc3c(c2)C(=O)N(CC2CCCO2)C3=O)cc1 (centres unmarked),7.95
6,CC(=C/c1ccco1)/C=N/N1CCN(c2ccccc2)CC1,-1.96
7,CCOc1ccccc1NC(=O)C(C)CC (centres unmarked),6.18
8,COc1ccc(NC(=O)C2C3C=CC4(O3)C2C(=O)N(CCN2CCCCC2)C4C(=O)NC2CCCCC2)cc1 (centres unmarked),12.8
9,O=C(O)[C@]1(S(=O)(=O)c2ccccc2)C[C@@H]2ON=C(c3cccc(Br)c3)[C@@H]2C1,5.67
10,COc1ccc(N2CCN(CC(=O)NCc3ccc(Cl)cc3)CC2)cc1,-33
11,CCN(CC(=O)Nc1c(F)cccc1F)C(=O)CCSc1ccc(C)cc1,-7
12,CCCCn1c(SCC(=O)N2CCC(C)CC2)nc2cc(S(N)(=O)=O)ccc21,-11.7
13,CC(CN1CCC(n2nccc2NC(=O)C2CCCC2)CC1)c1ccccc1 (centres unmarked),2.95
14,CCOC(CCNC(=O)c1cc2c(=O)[nH]c3ccccc3c2s1)OCC,12.6
15,CC12CN(C(=O)c3ccco3)CC(c3ccccc3)(CN(C(=O)c3ccco3)C1)C2=O,4.85
16,CCC1CN(C(=O)NCc2cccc(OC)c2)c2cc(Cl)ccc2O1 (centres unmarked),13.3
17,CCN(C(=O)COC(=O)C1CCN(S(=O)(=O)c2ccc(C)c(C)c2)CC1)C1CCCCC1,12.4
18,CCC(C(=O)OCC(=O)c1c(N)n(CC(C)C)c(=O)n(C)c1=O)c1ccccc1 (centres unmarked),9.28
19,O=C(O)CCC(CNS(=O)(=O)c1ccccc1)C(F)(F)F (centres unmarked),10.4
20,COC(=O)C1=C(C(=O)OC)[C@@H]2N(C)c3ccccc3[C@@]23C[C@@H](CO)N=C3N1,11.9

# — publication PMC4336329 (PLoS ONE, 2015)
